# The other results are listed elsewhere or left out.
# System: PfAP2-HC AP2 domain (GST-tagged)
# Experiment: gcPBM binding intensity (ln(normalized median fluorescence intensity)); higher = stronger DNA binding
# How it was run: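 In this array assay, P. falciparum DNA-binding domains with a GST tag, expressed in E. coli, were applied for 1 h to primer-extended double-stranded 36-bp intergenic genomic probes and negative controls on an Agilent 4 × 180k array. Bound protein was visualised with Alexa488 anti-GST antibody at 488 nm. Binding intensity is the highest Masliner-normalised natural-log median intensity across replicate spots of either probe orientation.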
row,Sequence,gcPBM binding intensity (ln)
1,ATTTTTTAACATATCATACACACAACCACTTTTTAT [CACACA_site1961],10.3
2,ATTAAATGCAGTTCGGTGCATTAAGGTTATGATGAA [GTGCAC_site9883],9.5
3,CACATACAGACATACACACACATATAGATTAATATA [CACACA_site6399],10.3
4,TTAGGGTTTTATAAATGTACTTATTTATACATCCTC [XGTACX_site5769],9.58
5,TATATATATATATTATGTACATATATATTAAATATG [XGTACX_site2494],9.58
6,AATAAGAAATGTAAATGTACATAAAAAAAAGTATAT [XGTACX_site3573],9.94
7,CACCTTATAAATACTGCACACATAAAATATATATTA [CACACA_site8908],9.9
8,ACATATAAATATATTACACACACACTAAAAAAATAA [CACACA_site6209],10.4
9,CTTATCAAAAAAAAAGCATGCCACAGGCAAAAGGTA [TGCATGCA_site574],9.71
10,ATATATATATATATATGTACATATATACATATACAT [XGTACX_site2350],10.1
11,GAATAATATATATATTGTACTTTTTATTTATATTAT [XGTACX_site3180],9.65
12,AAAATATAATATAATGCACACATAAAACAAAAAAAA [CACACA_site8989],9.9
13,AAAAAAAAATTAATATATAAAAGGATATATATATAT [GTGCAC_negctrl_site449],9.52
14,ATATATATATTTATATGTACGAAATATAAAAAAAAA [XGTACX_site5054],9.63
15,CTTTTTTTTTTTTTTACACACCCAAATCACATACAT [CACACA_site4051],9.87
16,TGGAATAATACGCGTACACACATATATATATTAATA [CACACA_site131],9.87
17,TGAACACACGAGCACACACACACATCTATATTTATA [CACACA_site6607],11.1
18,AGGTATCAAAAATATGCATGCAATATTTTATGTAAT [TGCATGCA_site1055],9.71
19,ATATAAAAATGTGTATGTACACACTTTATTTTTAAT [XGTACX_site5272],9.88
20,ATCCTTTATTTTTTTTGTACATAAAAATAACTCGAG [XGTACX_site3885],9.6
21,TTTTTCTATAAAAAATGTACATATTTTATGAAGGAA [XGTACX_site821],9.34
22,AAATTACAAATACAAACACACAAATGTTTTTCATTC [CACACA_site3552],9.77
23,TTAAAAAACCTTAGATGTACAGTTATATATAAAATA [XGTACX_site6688],9.58
24,CATTAATAAAAAAAAAGTACAAAAAATATATATATT [XGTACX_site2091],9.65
25,AAAATAAAAATATTCACACATACAAAAATTATACAA [CACACA_site5136],9.83
